# Results reported in the supplement of paper PMC12217912.
# The other results are listed elsewhere or left out. The full chains were built here from the parent and the listed change. Inactive controls read about 0.05.
# B1: TEV protease; numbered along this chain (parent)
# chain: MGESLFKGPRDYNPISSSICHLTNESDGHTTSLYGIGFGPFIITNKHLFRRNNGTLVVQSLHGVFKVKDTTTLQQHLVDGRDMIIIRMPKDFPPFPQKLKFREPQREERICLVTTNFQTKSMSSMVSDTSCTFPSGDGIFWKHWIQTKDGQCGSPLVSTRDGFIVGIHSASNFTNTNNYFTSVPKNFMELLTNQEAQQWVSGWRLNADSVLWGGHKVFMVKPEEPFQPVKEATQL
# Variants of: B1
# Experiment: raw area under fraction-flipped curve 0-4 h after induction (AUC4h, not background-subtracted), DNA-recorder readout of cleavage of the substrate (dimensionless); higher = more cleavage of the substrate by the protease variant
# Conditions: temperature: 34 °C; time window: 0-4 h after rhamnose induction
# Experimental: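 In vivo DNA recorder in E. coli TOP10(DE3) ΔrhaA at 34 °C. Each TEVp single-site mutant (parent TEVp 0) is paired with a single-site variant of the 7-mer TEVs (canonical ENLYFQ|S). The substrate sits between flexible linkers in a Bxb1-sfGFP-TEVs-SsrA fusion, so cleavage stabilises Bxb1 and speeds flipping of a recombination array, read by NGS. The value is the raw area under the fraction-flipped curve over 0-4 h after rhamnose induction (AUC4h), with ≥20 reads per time point. It is not background-subtracted; inactive controls average about 0.047.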
# 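Also: Bxb1 expression induced with 0.2% (w/v) L-rhamnose at OD600 near 0.5, cultures sampled hourly, flipped fraction per protease–substrate barcode pair counted by paired-end Illumina sequencing.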
Variant,area with substrate ENLYFQA,area with substrate ENLYFQC,area with substrate ENLYFQI,area with substrate ENLYFQK,area with substrate ENLYFQL,area with substrate ENLYFQM,area with substrate ENLYFQP,area with substrate ENLYFQQ,area with substrate ENLYFQR,area with substrate ENLYFQS,area with substrate ENLYFQT,area with substrate ENLYFQW,area with substrate ENLYFQD,area with substrate ENLYFQF,area with substrate ENLYFQG,area with substrate ENLYFQH,area with substrate ENLYFQN,area with substrate ENLYFQV,area with substrate ENLYFQY,area with substrate ENLYFQE
MGESLFKGPRDYNPISSSICHLTNESDGHTTSLYGIGFGPFIITNKHLFRRNNGTLVVQSLHGVFKVKDTTTLQQHLVDGRDMIIIRMPKDFPPFPQKLKFREPQREERICLVTTNFQTKSMSSMVHDTSCTFPSGDGIFWKHWIQTKDGQCGSPLVSTRDGFIVGIHSASNFTNTNNYFTSVPKNFMELLTNQEAQQWVSGWRLNADSVLWGGHKVFMVKPEEPFQPVKEATQL [S127H],0.0823,0.12,0.0595,0.0656,0.0627,0.102,0.0518,0.0789,0.0373,0.104,0.0634,0.104,,,,,,,,
MGESLFKGPRDYNPISSSICHLTNESDGHTTSLYGIGFGPFIITNKHLFRRNNGTLVVQSLHGVFKVKDTTTLQQHLVDGRDMIIIRMPKDFPPFPQKLKFREPQREERICLVTTNFQTKSMSSMRSDTSCTFPSGDGIFWKHWIQTKDGQCGSPLVSTRDGFIVGIHSASNFTNTNNYFTSVPKNFMELLTNQEAQQWVSGWRLNADSVLWGGHKVFMVKPEEPFQPVKEATQL [V126R],0.115,0.141,0.0589,0.0835,0.0623,0.0995,0.0718,,0.0595,0.118,0.0708,0.0674,0.073,0.0851,0.112,0.0798,0.0655,0.0539,0.0703,
MGESLFKGPRDYNPISSSICHLTNESDGHTTSLYGIGFGPFIITNKHLFRRNNGTLVVQSLHGVFKVKDTTTLQQHLVDGRDMIIIRMPKDFPPFPQKLKFREPQREERICLVTTNFQTKSLSSMVSDTSCTFPSGDGIFWKHWIQTKDGQCGSPLVSTRDGFIVGIHSASNFTNTNNYFTSVPKNFMELLTNQEAQQWVSGWRLNADSVLWGGHKVFMVKPEEPFQPVKEATQL [M122L],0.0911,0.126,0.0545,0.071,,0.0924,,,0.0567,0.106,0.0655,0.061,,,,,0.0701,0.0681,0.095,
MGESLFKGPRDYNPISSSICHLTNESDGHTTSLYGIGFGPFIITNKHLFRRNNGTLVVQSLHGVFKVKDTTTLQQHLVDGRDMIIIRMPKDFPPFPQKLKFREPQREERICLVTTNFQTKSWSSMVSDTSCTFPSGDGIFWKHWIQTKDGQCGSPLVSTRDGFIVGIHSASNFTNTNNYFTSVPKNFMELLTNQEAQQWVSGWRLNADSVLWGGHKVFMVKPEEPFQPVKEATQL [M122W],0.0951,0.11,,0.0466,0.0646,0.0889,,0.075,0.0533,0.106,0.0693,0.0801,,,,,,0.0351,,
MGESLFKGPRDYNPISSSICHLTNESDGHTTSLYGIGFGPFIITNKHLFRRNNGTLVVQSLHGVFKVKDTTTLQQHLVDGRDMIIIRMPKDFPPFPQKLKFREPQREERICLVTTNFQTKSMVSMVSDTSCTFPSGDGIFWKHWIQTKDGQCGSPLVSTRDGFIVGIHSASNFTNTNNYFTSVPKNFMELLTNQEAQQWVSGWRLNADSVLWGGHKVFMVKPEEPFQPVKEATQL [S123V],0.125,0.141,0.0447,,0.0453,0.0817,,0.098,0.0496,0.103,0.0588,0.058,,,0.0993,0.0709,0.0634,0.063,0.0808,0.0768
MGESLFKGPRDYNPISSSICHLTNESDGHTTSLYGIGFGPFIITNKHLFRRNNGTLVVQSLHGVFKVKDTTTLQQHLVDGRDMIIIRMPKDFPPFPQKLKFREPQREERICLATTNFQTKSMSSMVSDTSCTFPSGDGIFWKHWIQTKDGQCGSPLVSTRDGFIVGIHSASNFTNTNNYFTSVPKNFMELLTNQEAQQWVSGWRLNADSVLWGGHKVFMVKPEEPFQPVKEATQL [V113A],0.0888,0.128,0.0354,0.0529,0.0576,0.075,,0.0877,0.0645,0.0923,0.0556,0.0609,0.0776,,0.0836,0.0827,,,,
MGESLFKGPRDYNPISSSICHLTNESDGHTTSLYGIGFGPFIITNKHLFRRNNGTLVVQSLHGVFKVKDTTTLQQHLVDGRDMIIIRMPKDFPPFPQKLKFREPQREERICLTTTNFQTKSMSSMVSDTSCTFPSGDGIFWKHWIQTKDGQCGSPLVSTRDGFIVGIHSASNFTNTNNYFTSVPKNFMELLTNQEAQQWVSGWRLNADSVLWGGHKVFMVKPEEPFQPVKEATQL [V113T],0.0827,0.0966,0.0478,0.0535,0.048,0.0658,,0.053,,0.0774,0.0631,0.0302,0.0493,0.0728,0.0731,0.0753,0.0655,0.0579,,
MGESLFKGPRDYNPISSSICHLTNESDGHTTSLYGIGFGPFIITNKHLFRRNNGTLVVQSLHGVFKVKDTTTLQQHLVDGRDMIIIRMPKDFPPFPQKLKFREPQREERICLVTTEFQTKSMSSMVSDTSCTFPSGDGIFWKHWIQTKDGQCGSPLVSTRDGFIVGIHSASNFTNTNNYFTSVPKNFMELLTNQEAQQWVSGWRLNADSVLWGGHKVFMVKPEEPFQPVKEATQL [N116E],0.0875,0.105,0.0584,0.0644,,0.0939,0.059,,0.0588,0.0982,0.0897,0.0613,,,,0.0526,0.0702,0.0588,0.0709,0.0773
MGESLFKGPRDYNPISSSICHLTNESDGHTTSLYGIGFGPFIITNKHLFRRNNGTLVVQSLHGVFKVKDTTTLQQHLVDGRDMIIIRMPKDFPPFPQKLKFREPQREERICLVTTKFQTKSMSSMVSDTSCTFPSGDGIFWKHWIQTKDGQCGSPLVSTRDGFIVGIHSASNFTNTNNYFTSVPKNFMELLTNQEAQQWVSGWRLNADSVLWGGHKVFMVKPEEPFQPVKEATQL [N116K],0.0688,,,,,,,,0.0557,0.106,0.0891,,,,0.0971,,,,0.11,
